Measured values: PubChem BioAssay AID504339 (National Center for Advancing Translational Sciences (NCATS), 2011)
Hit rate of the full screen: of about 390,000 compounds, about 17,000 (4.4%) were called active. Inconclusive results, whose numbers are uncertain, are shown with a selection of clear calls. Calls follow the shape of the dose curve; as a rule, active = well fitted inhibition curve with a large enough effect; inconclusive = small, poorly fitted or top-dose-only effect; inactive = no such curve, though single readings can be large or run the other way. A potency beside an inconclusive call is a rough fit, not a confirmed value.

Biological target: Lysine-specific demethylase 4A (Homo sapiens) (UniProt O75164)
Chain of UniProt O75164 (O75164 whole entry, looked up, the tested form may be a part): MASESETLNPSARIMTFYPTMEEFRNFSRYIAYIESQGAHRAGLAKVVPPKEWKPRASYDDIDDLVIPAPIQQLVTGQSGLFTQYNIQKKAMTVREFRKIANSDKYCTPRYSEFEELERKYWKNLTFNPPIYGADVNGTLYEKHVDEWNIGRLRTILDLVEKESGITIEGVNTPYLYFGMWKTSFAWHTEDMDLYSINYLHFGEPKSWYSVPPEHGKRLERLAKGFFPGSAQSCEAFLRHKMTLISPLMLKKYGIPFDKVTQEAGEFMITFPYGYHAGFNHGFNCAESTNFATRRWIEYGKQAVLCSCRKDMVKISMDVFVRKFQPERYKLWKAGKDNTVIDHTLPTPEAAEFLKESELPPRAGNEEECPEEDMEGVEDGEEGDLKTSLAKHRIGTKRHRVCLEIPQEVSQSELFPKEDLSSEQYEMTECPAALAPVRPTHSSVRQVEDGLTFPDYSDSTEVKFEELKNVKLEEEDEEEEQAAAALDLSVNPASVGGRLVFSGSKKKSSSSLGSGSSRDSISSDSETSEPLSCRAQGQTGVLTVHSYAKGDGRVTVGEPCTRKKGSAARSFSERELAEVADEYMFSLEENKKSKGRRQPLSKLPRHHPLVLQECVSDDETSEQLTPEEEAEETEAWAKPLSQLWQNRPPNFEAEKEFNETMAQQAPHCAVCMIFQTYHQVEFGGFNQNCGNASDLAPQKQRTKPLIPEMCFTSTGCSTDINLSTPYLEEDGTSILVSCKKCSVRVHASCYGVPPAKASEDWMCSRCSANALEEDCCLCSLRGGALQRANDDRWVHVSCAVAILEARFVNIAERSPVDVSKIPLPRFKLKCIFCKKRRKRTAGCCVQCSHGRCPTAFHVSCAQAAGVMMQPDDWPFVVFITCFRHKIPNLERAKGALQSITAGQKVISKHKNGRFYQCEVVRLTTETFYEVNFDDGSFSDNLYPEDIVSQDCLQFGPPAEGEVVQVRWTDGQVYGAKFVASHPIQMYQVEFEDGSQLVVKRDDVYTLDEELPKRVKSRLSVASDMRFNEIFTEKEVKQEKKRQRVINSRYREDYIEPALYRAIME
Experiment: qHTS Assay for Inhibitors of JMJD2A-Tudor Domain; also: nearly all actives have a fitted effect of over 50% in size
Details: AlphaScreen JMJD2A-Tudor / H3K4me3 peptide binding; series mostly up to 114 µM
Potency is read from the fitted curve at half-maximal effect; tags tell the direction and shape of the fitted curve.

Potency, inactive:
COc1ccccc1CNC(=O)C1CCN(S(=O)(=O)c2ccc3c(c2)OCCCO3)CC1
Cc1nnc(SCC(=O)NCc2ccc(F)cc2)[nH]c1=O
Cc1ccc(-n2ncc3c(NCc4ccccc4)ncnc32)cc1Cl
Cc1ccc(CNc2nnc(C)c3nnn(Cc4ccc(F)cc4)c23)cc1
COc1cc(Cn2ccnc2)c(OC)cc1Cn1ccnc1
C/C(=N\Nc1cc(N2CCOCC2)ncn1)c1ccc(O)cc1
CNC(=O)c1ccc(NC(=O)CN2c3cccc4cccc(c34)S2(=O)=O)cc1
Cc1ccccc1Cn1c(SCc2ccc(C(=O)NC3CCCCC3)cc2)nc2ccncc21
COc1cc(NC(=O)Cn2cc(C(=O)c3ccc(F)cc3)c(=O)c3ccc(C)nc32)cc(OC)c1
COCCNC(=O)C1CCN(C(=O)c2cc3sccc3n2Cc2ccc(F)cc2)CC1
Cc1c(NN=C(C#N)C#N)c(=O)n(-c2ccccc2)n1C
CCCCNc1nnc(SCC(=O)c2c(N)n(C3CC3)c(=O)[nH]c2=O)s1
CCOC(=O)c1c(NC(N)=O)nc2n1CCC2
CC(=O)c1cccc(NS(=O)(=O)c2ccc(N/C=C\C(=O)c3ccc(F)cc3)cc2)c1
COc1ccccc1N(CC(=O)Nc1ccc(Br)cc1F)S(=O)(=O)c1cccs1
NC(=O)CN1CCOCCN(CC(N)=O)CCOCC1
O=C(Nc1ccccc1Cl)N1CCN(Cc2ccc3c(c2)OCO3)CC1
O=C(NCCCN1CCc2ccccc2C1)C1CCN(S(=O)(=O)N2CCCC2)CC1
C=CCN(C(=O)c1csnn1)C(C(=O)NC1CCCCC1)c1ccc(F)cc1 (centres undefined)
CCN(CC(=O)N1CCC(C(N)=O)CC1)S(=O)(=O)c1ccc(Cl)cc1

Potency, active:
Cc1ccc([N+](=O)[O-])c(OCCCN2CCC(Cc3ccccc3)CC2)c1 20 µM
CCN(CC)c1ccc(/C=N/N2CCN(Cc3ccccc3)CC2)cc1 22.4 µM
CCOc1ccc(C=NN2CCCCCC2)cc1OCC 39.8 µM
CCCCOc1ccc(C(=O)N(Cc2ccc(N(C)C)cc2)Cc2ccco2)cc1 20 µM
CCOc1cc(CNc2ccc3c(c2)CCC3)ccc1O 79.4 µM
Cc1ccc(CN2CCN(c3ccccc3)CC2)o1 20 µM
Cc1ccc(NC(=O)CN2C(=O)N/C(=C/c3ccccc3OCc3cccc(C(=O)O)c3)C2=O)cc1 28.2 µM
COC(=O)c1cc(NC(=O)c2nccnc2C(=O)O)cc(C(=O)OC)c1 56.2 µM
O=C(O)CNS(=O)(=O)c1cccc2nsnc12 14.1 µM
CN(C)c1ccc(NC2=C(Cl)C(=O)c3ccccc3C2=O)cc1 6.31 µM
OCc1ccccc1SSc1ccccc1CO 14.1 µM
CC(=O)c1ccc(NC(=O)COC(=O)c2ccccc2N=Nc2ccc(N(C)C)cc2)cc1 12.6 µM
COc1ccccc1N1CCN(/N=C\C(Br)=C\c2ccccc2)CC1 39.8 µM
C=CC(=O)Nc1ccc(CN2C(=O)N(c3c(Cl)c(OC)cc(OC)c3Cl)Cc3cnc(NCCCCN(CC)CC)nc32)cc1 56.2 µM
CSCCOC(=O)c1[nH]c2c(c1C)C(=O)CC(c1ccco1)C2 (centres undefined) 35.5 µM
O=C(CNCc1ccc(Cl)cc1)Nc1cc(S(=O)(=O)N2CCCC2)ccc1Cl 3.55 µM
O=C(Nc1nc(-c2ccccn2)cs1)c1ccc([N+](=O)[O-])o1 22.4 µM
COc1cccc(N=Nc2c(=O)[nH]n3c(=O)c4c([nH]c23)CCC4)c1 50.1 µM
CCCCCc1cc(=O)oc2c(C(CCN3CCCCC3)c3ccc4c(c3)OCO4)c(OC)cc(OC)c12 (centres undefined) 44.7 µM

Potency, inconclusive:
CC(=O)c1cc2c(O)c(O)ccc2o1 5.01 µM [inhibitor, full curve]
COc1cc(CC(=O)OCC(=O)Nc2ccc(N(C)C)cc2)cc(OC)c1OC 14.1 µM [inhibitor, full curve, poor fit]
CCc1ccc(NC(=O)CSc2nccn2-c2ccc(F)cc2)cc1 50.1 µM [inhibitor, partial curve]
COc1cc(NC(C(=O)Nc2cccc(C(C)=O)c2)c2ccccc2)cc(OC)c1OC (centres undefined) 50.1 µM [inhibitor, partial curve]
COc1ccc(NC(=O)C/C(C)=N/NC(=O)c2ccccn2)c(OC)c1 1.41 µM [inhibitor, full curve]
Cc1ccc(C(=O)Nc2sc(C)c(-c3ccccc3)c2C(N)=O)cc1[N+](=O)[O-] 56.2 µM [inhibitor, partial curve]
COc1ccc2c(Cl)c(C(=O)N/N=C/c3c(C)[nH]c4ccccc34)sc2c1 12.6 µM [inhibitor, partial curve]
CCOc1ccccc1C(=O)NCc1ccco1 50.1 µM [inhibitor, partial curve]
CCOc1cc(C(c2c(C)[nH][nH]c2=O)c2c(C)[nH][nH]c2=O)ccc1OC(=O)c1cccc([N+](=O)[O-])c1 44.7 µM [inhibitor, partial curve]
COc1ccc(CC(=O)NNC(=O)c2ccco2)cc1OC 1.12 µM [inhibitor, full curve]
O=C(c1ccc(COc2ccccc2Cl)o1)N1CCN(c2ccccc2)CC1 31.6 µM [inhibitor, full curve]
O=S(=O)(Nc1ccc(O)cc1)c1cccc2cccnc12 20 µM [inhibitor, full curve]
CCc1ccc(S(=O)(=O)Nc2ccc(O)c3ccccc23)cc1 79.4 µM [inhibitor, partial curve]
COc1cccc(-c2nc(NC3CCCC3)c3ccccc3n2)c1O 17.8 µM [inhibitor, full curve]
COc1ccccc1C(=O)Nc1cccc(NC(=O)c2ccccc2C)c1 15.8 µM [inhibitor, full curve]
COc1ccc(Cn2ccnc2SCC(=O)Nc2ccccc2OC)cc1 79.4 µM [inhibitor, partial curve]
Cc1cc(C)c2c(N)c(S(=O)c3ccc(C(C)(C)C)cc3)sc2n1 (centres undefined) 56.2 µM [inhibitor, partial curve, poor fit]
CCOC(=O)C1CCCN(C(=O)c2cc(Nc3ccc(OC)c(OC)c3)nc3ccccc23)C1 (centres undefined) 11.2 µM [inhibitor, partial curve, poor fit]
COc1ccccc1Nc1ccc(Nc2ccccc2OC)nn1 56.2 µM [inhibitor, partial curve]
CCC1(CC)Cc2ccccc2-c2nc(CN(C)C)[nH]c(=O)c21 56.2 µM [inhibitor, partial curve]
Cc1ccc(S(=O)(=O)NCCNc2ccc([N+](=O)[O-])cc2)cc1 44.7 µM [inhibitor, full curve, poor fit]
Cc1ccc(-c2csc(N3CCC[C@@H]3C(=O)NCCn3c(-c4ccncc4)nc4ccccc43)n2)cc1 56.2 µM [inhibitor, partial curve]
O=C(CSc1nc(O)cc(=O)[nH]1)Nc1ccc2c(c1)CCC2 89.1 µM [inhibitor, partial curve]
O=[N+]([O-])c1ccc(Oc2c(F)c(F)nc(N3CCCC3)c2F)cc1 63.1 µM [inhibitor, partial curve, poor fit]
O=C1OC(Nc2cc(Br)cc3cccnc23)c2ccccc21 (centres undefined) 89.1 µM [inhibitor, partial curve]
N#C/C(=C1\CCCN1)c1nc2ccccc2c(=O)[nH]1 89.1 µM [inhibitor, single point]
COc1cccc(-c2nn(C)c3sc(C(=O)N4CCN(c5ccccn5)CC4)cc23)c1 50.1 µM [inhibitor, partial curve]
Cc1ccc(N2C(=N)/C(=C3/Nc4ccccc4S3)C(c3ccccc3)C2=O)cc1 (centres undefined) 31.6 µM [inhibitor, partial curve]
O=C(NS(=O)(=O)Nc1ccc(Cl)cc1)c1c[nH]c2ccccc12 50.1 µM [inhibitor, partial curve]
CC1CC(C)CN(c2ccc(C(=O)NCc3ccc4c(c3)OCO4)cc2[N+](=O)[O-])C1 (centres undefined) 3.55 µM [inhibitor, full curve]
O=C(O)c1ccc(NC(=O)c2cccc(C(=O)Nc3ccc(C(=O)O)cc3)n2)cc1 14.1 µM [inhibitor, full curve, poor fit]
CCOC(=O)CN1C(=O)S/C(=C/c2ccc(OCc3ccc(C(=O)O)cc3)cc2)C1=O 44.7 µM [inhibitor, partial curve]
CCN1CCN(c2c(Cl)cccc2NC(=O)c2ccc(Br)o2)CC1 63.1 µM [inhibitor, partial curve, poor fit]
CCN(CC)CCCN=Cc1c(O)n(Cc2ccccc2)c(=O)c2ccccc12 56.2 µM [inhibitor, partial curve]
Cc1ccc(/C=C2\SC(=S)N(c3c(C)n(C)n(-c4ccccc4)c3=O)C2=O)cc1 56.2 µM [inhibitor, partial curve]
